Out of some 52,000 compounds screened, about 4,300 (8.3%) were called active. Rule as the data show it: active = survival mostly below about 52% (no sharp cut-off); inactive = mostly above about 56%. Some of the results follow.

The assay deals with DeltatarO mutant. Description: growth inhibition of S. aureus wild type versus tarO mutant, primary screen, teichoic acid synthesis inhibitors, RN4220, OD600 (AID 463173). As to conditions: OD600, 18 h, hits give low values, screened at 18.75 µg/mL (by protocol).
As for `COc1ccc(-c2nc3c4ccccc4n(CC(=O)Nc4ccc(C(C)=O)cc4)c(=O)n3n2)cc1`, the survival is inactive: 71%.

With `Cc1cc(C)cc(NC(=O)CSc2nc3c(cnn3-c3ccc(F)cc3)c(=O)[nH]2)c1`, the survival was inactive: 68%.

On to `O=C(OCc1ccc(Cl)cc1Cl)c1ccncc1`, for which the survival was inactive: 98%.

On to `C=CCN1C(=O)C2(C(C#N)=C(N)Oc3n[nH]c(COC)c32)c2ccccc21` (stereo not given), for which the survival was inactive: 109%.

Regarding `Cc1nc2ccc(S(=O)(=O)NCC(=O)Nc3ccc(C)c(Cl)c3)cc2s1`, the survival was inactive: 63%.

`O=S(=O)(c1ccc(Cl)cc1)N1CCC(c2ccncc2)CC1`: the survival is inactive: 73%.

For the compound `O=C(Nc1nnc(S(=O)(=O)N2CCOCC2)s1)c1cccc(Br)c1`, the survival is active: 42%.

On to `Cc1nc2c(C(=O)NCCc3ccccc3)c[nH]n2c(=O)c1Cc1ccccc1F`, for which the survival is active: -13%.

As for `COc1cccc(C(=O)Nc2ccc(C(=O)OCc3cc(=O)n4cc(C)sc4n3)cc2)c1`, the survival is inactive: 66%.

Regarding `NC(=O)Cn1c(-c2nonc2N)nc2ccccc21`, the survival was active: 62%.

As for `COc1cc(NS(=O)(=O)c2cc3c(cc2C)n(C)c(=O)c(=O)n3C)cc(OC)c1`, the survival is inactive: 68%.

On to `Cc1nc2sccn2c(=O)c1S(=O)(=O)N1CCN(c2ccc(F)cc2)CC1`, for which the survival was inactive: 74%.

Take `COc1ccc(CCNC(=O)CSc2nc3ccccc3nc2Cc2ccc(Cl)cc2)cc1OC`: the survival is active: 37%.

For the compound `Cc1cccc(NS(=O)(=O)c2ccc(Cl)c(C(=O)Nc3ccccc3C)c2)c1`, the survival is inactive: 71%.

For `CC(C)Cn1c(-c2ccc(S(=O)(=O)N3CCCC3)cc2)csc1=Nc1ccccc1`, the survival is inactive: 58%.

In the case of `CCCN(Cc1cccs1)C(=O)Nc1ccc(Br)c(C)c1`, the survival was inactive: 57%.

On to `Cc1ccc(-n2c(=O)c3c(cnn3C)n(CC(=O)Nc3cc(C)ccc3C)c2=O)cc1`, for which the survival was inactive: 85%.

For the compound `Cc1ccc(C(=O)c2cn(Cc3cccc(F)c3)c3nc(C)ccc3c2=O)cc1`, the survival was inactive: 78%.

As for `Cc1ccc(NC(=O)Cn2cc(C(=O)c3cccs3)c3ccccc32)cc1C`, the survival is inactive: 74%.

Regarding `COc1ccc(C(=O)NCc2ccc3c(c2)CCN3C(=O)c2cccc(C)c2)cc1OC`, the survival is inactive: 119%.

Take `CCn1c(SCC(=O)N(C2CCCCC2)C2CCCCC2)nnc1C(C)C`: the survival is inactive: 103%.

Consider `O=C(CCn1cccn1)Nc1cccc(C(F)(F)F)c1`, for which the survival was inactive: 70%.

On to `Cc1oc2ncnc(N3CCOCC3)c2c1C(=O)NCc1ccccc1`, for which the survival is inactive: 91%.

`CN1CCN(Cc2c(O)ccc3cc(-c4ccccc4)c(=O)oc23)CC1`: the survival was inactive: 105%.

On to `CCOc1ccc(-c2cc(C(=O)NCc3ccc(OC)cc3)c3c(-c4ccc(F)cc4)[nH]nc3n2)cc1`, for which the survival was inactive: 77%.

Values taken from PubChem BioAssay AID463173 (ICCB-Longwood Screening Facility, Harvard Medical School, 2010).
